Some of the results follow. Single values are uncertain, as repeats are few or missing.
What was measured:
Assay in all cases: cell count relative to DMSO control; melanoma cells; higher = more viable cells
Details in all cases: library dose: standard library concentration; 72 h
SkMel30 = tested on: SkMel30
SkMel5 = tested on: SkMel5
UACC257 = tested on: UACC257
UACC62 = tested on: UACC62
WM115 = tested on: WM115
WM1716 = tested on: WM1716
WM1745 = tested on: WM1745
WM3526 = tested on: WM3526
WM3619 = tested on: WM3619
WM451Lu = tested on: WM451Lu
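Note: cells treated in 1,536-well plates, then fixed and DAPI-stained, with nuclei counted from automated high-throughput microscope images.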

Compound	cell count (SkMel30) [%]	cell count (SkMel5) [%]	cell count (UACC257) [%]	cell count (UACC62) [%]	cell count (WM115) [%]	cell count (WM1716) [%]	cell count (WM1745) [%]	cell count (WM3526) [%]	cell count (WM3619) [%]	cell count (WM451Lu) [%]
COc1ccc(COc2ccc(Cc3cnc(N)nc3N)cc2OC)cc1 + O=c1cc(-c2cccc3c2Sc2ccccc2S3)oc(N2CCOCC2)c1 [KU55933] (first compound 5 µM, partner dose 5 µM)	79.3	92.4	80.6	71	98.7	91.2	59.6	81.3	67.4	84.3
COC(=O)c1sccc1S(=O)(=O)Nc1ccc(Nc2ccccc2)cc1OC + Cc1cc([N+](=O)[O-])ccc1NS(=O)(=O)c1cc(Cl)ccc1Cl [FH535] (first compound 5 µM, partner dose 5 µM)	77.1	71.8	71.6	118	108	75.5	77	73.6	78.8	85.4
COC(=O)c1sccc1S(=O)(=O)Nc1ccc(Nc2ccccc2)cc1OC + Cn1cc(/C=C2\C(=O)Nc3cccnc32)c2ccccc21 [GW441756] (first compound 5 µM, partner dose 2 µM)	87.3	61.9	71.7	101	104	113	67.6	75.9	62.3	107
N#Cc1c(O)c2c(-c3ccc(-c4ccccc4O)cc3)csc2[nH]c1=O + COc1ccc2c(c1)CCC1C2CCC2(C)C(NCCCCCCN3C(=O)C=CC3=O)CCC12 [U73122] (first compound 10 µM, partner dose 2 µM)	98.5	101	101	105	87.2	88.9	49.7	101	46	96.6
Cc1cc([N+](=O)[O-])ccc1NS(=O)(=O)c1cc(Cl)ccc1Cl + c1cc(-c2cnn3cc(-c4ccc(OCCN5CCCCC5)cc4)cnc23)ccn1 [Dorsomorphin] (first compound 5 µM, partner dose 2 µM)	95	42.4	50.6	93.2	55.4	59.9	62.5	68.2	67.7	84.8
CCN(CC)CCCCNc1ncc2cc(-c3cc(OC)cc(OC)c3)c(NC(=O)NC(C)(C)C)nc2n1 + CCCCCCCCCCCC1=C(O)C(=O)C=C(O)C1=O [Embelin] (first compound 0.5 µM, partner dose 6 µM)	97.7	112	90.7	91.6	116	89.2	89.8	78.1	101	77.2
COc1cc2ncnc(Nc3ccc(Oc4ccccc4)cc3)c2cc1OC + O=C(O)C(=O)Nc1sc2c(c1C(=O)O)CCNC2 [TCS401] (first compound 10 µM, partner dose 8.33333 µM)	120	94.5	97.5	104	86.4	85.2	70.6	73.1	82.6	102
COc1cc(N2CCC(N3CCN(C)CC3)CC2)ccc1Nc1ncc(Cl)c(Nc2ccccc2S(=O)(=O)C(C)C)n1 + Cn1cc(/C=C2\C(=O)Nc3cccnc32)c2ccccc21 [GW441756] (first compound 0.4 µM, partner dose 2 µM)	88.8	41.4	74.7	85.2	91.9	89.7	74.2	61.6	94.1	91.4
N#Cc1c(O)c2c(-c3ccc(-c4ccccc4O)cc3)csc2[nH]c1=O + O=C(O)C(=O)Nc1sc2c(c1C(=O)O)CCNC2 [TCS401] (first compound 10 µM, partner dose 8.33333 µM)	136	99.3	99.7	151	133	101	113	112	80.8	109
Oc1nc(-c2ccc(C(F)(F)F)cc2)nc2c1CSCC2 + CCCCCCCCCCCC1=C(O)C(=O)C=C(O)C1=O [Embelin] (first compound 10 µM, partner dose 6 µM)	96.1	65.5	81.9	99.6	104	73.7	64.4	94.3	98.4	102
N#Cc1c(O)c2c(-c3ccc(-c4ccccc4O)cc3)csc2[nH]c1=O + Oc1cc(-c2nc(-c3ccccc3)[nH]c2-c2ccncc2)ccc1Cl [L779450] (first compound 10 µM, partner dose 1 µM)	86.3	102	92.3	67.9	70.4	78	64.9	70.1	77.3	65.2
COc1ccc(COc2ccc(Cc3cnc(N)nc3N)cc2OC)cc1 + CCCCCCCCCCCC1=C(O)C(=O)C=C(O)C1=O [Embelin] (first compound 5 µM, partner dose 6 µM)	92.8	65.6	93.6	87.9	86.8	79.9	88.1	87.2	123	91.9
COc1cc2ncnc(Nc3ccc(Oc4ccccc4)cc3)c2cc1OC + O=c1cc(-c2cccc3c2Sc2ccccc2S3)oc(N2CCOCC2)c1 [KU55933] (first compound 10 µM, partner dose 5 µM)	84.4	71.5	83.9	87.4	65.1	82.7	75	51.6	79.8	76.4
O=S(=O)(c1ccccc1)N(CC(F)(F)F)c1ccc(C(O)(C(F)(F)F)C(F)(F)F)cc1 + Oc1cc(-c2nc(-c3ccccc3)[nH]c2-c2ccncc2)ccc1Cl [L779450] (first compound 7 µM, partner dose 1 µM)	81.9	71.5	79.3	48.7	37.6	73.7	58.6	55.5	71.9	49.7
CCCCCCCCCCCC1=C(O)C(=O)C=C(O)C1=O [Embelin] + CC(C)CCN1c2nc(Nc3cc(F)c(O)c(F)c3)ncc2N(C)C(=O)C1C [BID1870] (first compound 6 µM, partner dose 1 µM)	83.6	87.9	71.3	84	111	97.9	88.3	65.9	76.6	86.4
COc1cc2ncnc(Nc3ccc(Oc4ccccc4)cc3)c2cc1OC + Oc1cc(-c2nc(-c3ccccc3)[nH]c2-c2ccncc2)ccc1Cl [L779450] (first compound 10 µM, partner dose 1 µM)	98.5	75.5	92.6	52.2	46.4	70.1	49.1	51	54.8	52.1
COc1ccc(COc2ccc(Cc3cnc(N)nc3N)cc2OC)cc1 + Oc1nc(-c2ccc(C(F)(F)F)cc2)nc2c1CSCC2 [XAV939] (first compound 5 µM, partner dose 10 µM)	110	77	73.1	73	109	78.4	91.2	92.9	71.7	109
COc1cc2ncnc(Nc3ccc(Oc4ccccc4)cc3)c2cc1OC + c1cc(-c2cnn3cc(-c4ccc(OCCN5CCCCC5)cc4)cnc23)ccn1 [Dorsomorphin] (first compound 10 µM, partner dose 2 µM)	75.9	51.7	49.7	64.5	44.9	67.3	56.3	65.5	56.2	64.7
CCN(CC)CCCCNc1ncc2cc(-c3cc(OC)cc(OC)c3)c(NC(=O)NC(C)(C)C)nc2n1 + Cn1cc(/C=C2\C(=O)Nc3cccnc32)c2ccccc21 [GW441756] (first compound 0.5 µM, partner dose 2 µM)	75.3	53.5	84.7	71.1	90.4	92.4	60.2	89.6	65.2	106
O=C1NC(=O)/C(=C/c2ccc(-c3ccc(F)cc3O)o2)S1 + Oc1nc(-c2ccc(C(F)(F)F)cc2)nc2c1CSCC2 [XAV939] (first compound 5 µM, partner dose 10 µM)	119	83.1	77.3	126	105	75.1	65.8	92.1	72.1	93
COc1ccc(COc2ccc(Cc3cnc(N)nc3N)cc2OC)cc1 + Cc1cc([N+](=O)[O-])ccc1NS(=O)(=O)c1cc(Cl)ccc1Cl [FH535] (first compound 5 µM, partner dose 5 µM)	83.3	61.2	56.6	91.5	70.2	69.6	71.9	60.2	76.3	81.2
COc1ccc(-c2ccc3c(N4CCOCC4)nc(N4C[C@@H](C)O[C@@H](C)C4)nc3n2)cc1CO + Oc1cc(-c2nc(-c3ccccc3)[nH]c2-c2ccncc2)ccc1Cl [L779450] (first compound 0.1 µM, partner dose 1 µM)	73	62.9	91.6	72.2	56.1	88	58.3	50	64.2	55.8
Oc1nc(-c2ccc(C(F)(F)F)cc2)nc2c1CSCC2 + c1cc(-c2cnn3cc(-c4ccc(OCCN5CCCCC5)cc4)cnc23)ccn1 [Dorsomorphin] (first compound 10 µM, partner dose 2 µM)	84.8	60.5	85.8	70.4	72.1	84.2	46.8	79.4	66.9	80
COc1ccc2c(c1)CCC1C2CCC2(C)C(NCCCCCCN3C(=O)C=CC3=O)CCC12 (stereo not given) + O=c1cc(-c2cccc3c2Sc2ccccc2S3)oc(N2CCOCC2)c1 [KU55933] (first compound 2 µM, partner dose 5 µM)	107	103	88.5	99.4	104	58.1	70.2	76.2	66.5	101

Source: the supplement of paper PMC4604168 (melanoma cell lines)
